Results taken from PubChem BioAssay AID662 (National Center for Advancing Translational Sciences (NCATS), 2007).
Among all 71,000 compounds or so, about 1,800 (2.5%) were called active. Inconclusive results, whose numbers are uncertain, are shown with a selection of clear calls. Calls come from the whole dose curve; as a rule, active = well fitted activation curve with a large enough effect in the signal ratio, with a control signal flat (not every such curve was filed as active); inconclusive = small, poorly fitted or top-dose-only effect, or effect the other way, or a change in a side signal; inactive = flat fitted curve, though single readings scatter; the % refers to the signal ratio. A potency beside an inconclusive call is a rough fit, not a confirmed value.

test: Cell signaling CRE-BLA (Fsk stim); conditions: CHO CRE-bla reporter (cAMP response element driving beta-lactamase), forskolin EC10, beta-lactamase ratio; activity change, negative = inhibition: at 38.2 µM (top of the series) unless noted; for activity change, negative = inhibition: % of control where 0% means no effect
Method in brief: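 Modulation of forskolin signalling: compounds in titration series added with EC10 NKH 477 to CHO cells carrying a CRE-driven beta-lactamase reporter, 3 h, 37C. CCF4 FRET ratio (460/530 nm, ex 405 nm) gives %activity and AC50.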
Potency is the fitted concentration of half-maximal effect; tags give direction and shape of the fitted curve.

Row | SMILES | activity change, negative = inhibition | Potency
1 | Cc1cccc(Cn2c(=O)n(CCCC(=O)NCc3ccco3)c(=O)c3ccccc32)c1 | inconclusive: 18.5% | 
2 | CC(NC(=O)c1ccc(F)cc1)C(c1cccs1)N1CCN(C)CC1 (stereo not given) |  | inconclusive: 3.98 µM [rising, single point]
3 | CNc1nnc(CSc2nc3ccccc3s2)s1 | inconclusive: 28.1% | 
4 | CCOC(=O)N1CCN(S(=O)(=O)c2cc(OCC(N)=O)c(C)cc2Cl)CC1 | inactive | 
5 | CC1CCN(c2nc3ccccc3nc2C(C#N)C(=O)OC2CCCCC2)CC1 (stereo not given) | inconclusive: -4.97% | 
6 | CC(c1ccco1)N(C(=O)COc1ccc(Cl)cc1)c1ccccn1 (stereo not given) | inactive | 
7 | O=C(Nc1ccccc1-c1nc2ccccc2o1)c1ccc2c(c1)OCCO2 | inactive | 
8 | COC(=O)C1=C(C)Nc2nnnn2C1c1ccc(Cl)cc1Cl (stereo not given) | inactive | 
9 | CC(C)CCn1c(N)c(S(=O)(=O)c2cccs2)c2nc3ccccc3nc21 |  | inconclusive: 10 µM [rising, partial curve]
10 | Cc1csc(SCC(=O)c2cc(C)n(Cc3cccs3)c2C)n1 |  | inconclusive: 0.631 µM [falling, single point]
11 | Cc1oc2c(C)c3oc(=O)c4c(c3cc2c1C)CCCC4 | inactive | 
12 | CC(=O)Nc1ccc(-c2cn3cccnc3n2)cc1 | inconclusive: -4.01% | 
13 | Cc1ccsc1C(=O)OCC(=O)NCC1CCCO1 (stereo not given) | inconclusive: 0.975% | 
14 | N=C(N)c1ccc(-c2ccc(-c3ccc(C(=N)N)cc3)o2)cc1 | inconclusive: 23.9% [at 7.6 µM] | 
15 | Cc1cc(Nc2nnnn2-c2ccccc2)n(-c2ccc(Cl)cc2)n1 |  | inconclusive: 3.16 µM [falling, full curve]
16 | COCCn1c(SCCCc2ccccc2)nc2c1c(=O)[nH]c(=O)n2C |  | inconclusive: 10 µM [rising, partial curve, poor fit]
17 | COc1ccccc1-c1nc(C#N)c(N2CCN(c3ccccc3)CC2)o1 |  | inconclusive: 7.94 µM [rising, partial curve]
18 | O=C(CCCOc1ccccc1)Nc1ccc(S(=O)(=O)N2CCOCC2)cc1 | inactive | 
19 | CCOc1ccc(N=Cc2c(O)cc(C)oc2=O)cc1 | inactive | 
20 | CCOC(=O)C1=C(c2ccccc2)NC(SCC(=O)Nc2cccc(C)c2)=C(C#N)C1c1ccco1 (stereo not given) |  | inconclusive: 7.94 µM [rising, partial curve, poor fit]
21 | COC(=O)[C@@]1(Cc2ccccc2)[C@H]2c3cc(C(=O)N(C)C)n(Cc4ccc(OC)c(OC)c4)c3C[C@H]2CN1C(=O)c1ccccc1 | inconclusive: 8.15% | 
22 | CCCS(=O)(=O)N1CCC(C(=O)NCc2cccnc2)CC1 | inactive | 
23 | CCCOc1ccc(/C(O)=C2\C(=O)C(=O)N(CCCOC)C23C(=O)N(C)c2ccccc23)cc1 (stereo not given) | inactive | 
24 | CCOc1cc2[nH]c(=S)n(CCCN3CCCC3=O)c(=O)c2cc1OCC | inactive | 
25 | Cc1cc(=O)[nH]c(SCC(=O)Nc2cccc(C(F)(F)F)c2)n1 | inactive | 
26 | CN1CCN(c2ncc3nc(-c4cn(C)c5ccccc45)c(=O)n(C)c3n2)CC1 |  | inconclusive: 15.8 µM [rising, partial curve]
27 | Cc1sc(NC(=O)c2ccco2)c(C(c2cccnc2)N2CCN(c3ccc(F)cc3)CC2)c1C (stereo not given) |  | inconclusive: 10 µM [rising, partial curve]

Row | SMILES | activity change, negative = inhibition | Potency
28 | Cn1c(=N)n(CC(=O)C(C)(C)C)c2ccccc21 | inconclusive: 23.8% | 
29 | CCCOc1ccc2oc(=O)c3c(c2c1)CCCN3C(=O)CN1CCN(C(=O)c2ccco2)CC1 | inconclusive: 4.56% | 
30 | O=C(NCc1ccccc1)c1ccc(-c2ccccc2F)o1 | inactive | 
31 | COc1cc(C2CC(=O)N3CN(Cc4ccco4)CSC3=C2C#N)ccc1OCc1ccccc1 (stereo not given) | inconclusive: -10.9% | 
32 | Nc1ccccc1[N+](=O)[O-] | inactive | 
33 | O=C(Cc1cccs1)N1CCCC(c2nc3c(nnn3Cc3ccccc3Cl)c(=O)[nH]2)C1 (stereo not given) |  | inconclusive: 10 µM [rising, single point]
34 | CCOC(=O)c1c(NC(=O)COC)sc2c1CCCC2 |  | inconclusive: 15.8 µM [rising, single point]
35 | Cc1cccc(NC(=O)c2ccccc2O)c1C |  | inconclusive: 1 µM [rising, full curve, poor fit]
36 | O=C(NCc1ccco1)C1Cc2ccccc2CN1S(=O)(=O)c1ccccc1F (stereo not given) | inconclusive: -19.5% | 
37 | Cc1cc(C)c2[nH]c(=O)c(CN(C(=O)C3CCCO3)C3CCCC3)cc2c1 (stereo not given) | inactive | 
38 | Cn1c(=O)c2c(nc(NCCc3ccccc3)n2Cc2ccccc2)n(C)c1=O | inconclusive: 11.7% | 
39 | O=C(COc1ncnc2ccc(Br)cc12)Nc1ccc(N2CCOCC2)cc1 | inactive | 
40 | CCCS(=O)(=O)NCCc1cc2cc(C)c(C)cc2[nH]c1=O | inconclusive: 8.39% | 
41 | COc1ncc2nc(-c3ccc(Cl)cc3)c(=O)n(CCc3ccccc3)c2n1 | inconclusive: 22.4% | 
42 | CCOC(=O)N1CCN(C(=O)CSc2nc3c([nH]c4ccccc43)c(=O)n2C)CC1 | inactive | 
43 | Cc1nn(Cc2ccccc2)c(Cl)c1C(=O)NCc1ccc(C)n1C | inactive | 
44 | CCC(C)NC(=O)c1ccccc1NC(=O)CN1C(=O)c2ccccc2S1(=O)=O (stereo not given) | inactive | 
45 | O=C(O)CCC(=O)Nc1ccc2c(c1)oc1ccccc12 | inconclusive: 9.33% | 
46 | COc1ccc(NS(=O)(=O)c2cc(C(=O)O)ccc2C)cc1 | inconclusive: -6.59% | 
47 | O=C1Nc2ccccc2SC(c2ccccc2)C1O (stereo not given) |  | inconclusive: 10 µM [falling, partial curve]
48 | Cc1nc2cnc(Oc3cccc(Cl)c3)nc2n(CCC#N)c1=O | inactive | 
49 | CCOC(=O)c1[nH]c(C)c(C(=O)OCCN2C(=O)c3ccccc3C2=O)c1C |  | active: 2.51 µM
50 | COc1ccc(NC(=O)c2cccs2)cc1OC |  | inconclusive: 10 µM [rising, single point]
51 | N#Cc1nc(-c2ccc(OCc3ccc(Cl)cc3)cc2)oc1NCc1cccnc1 | inactive | 
52 | CC1(C)c2ccccc2N2CC(=O)NC21/C=C/c1ccco1 (stereo not given) | inactive | 
53 | COc1ccc(Br)cc1C(=O)NCc1cccnc1 |  | inconclusive: 7.94 µM [rising, partial curve]
54 | CCN(CC)C(=O)CSc1nc2cccnc2n1-c1ccccc1OC | inconclusive: 16.5% | 

Row | SMILES | activity change, negative = inhibition | Potency
55 | CC1CCc2c(sc3ncnc(SCC(=O)N4CCN(C(=O)c5ccco5)CC4)c23)C1 (stereo not given) | inconclusive: -6.35% | 
56 | CN(C)CCOc1nc(-c2ccccc2)nc2c1oc1ccccc12 |  | inconclusive: 0.316 µM [rising, full curve]
57 | Cc1cc(N2CCOCC2)nc2ccc(NC(=O)C3CCC(C)CC3)cc12 (stereo not given) | inactive | 
58 | COc1cc2c(cc1NC(=O)COC(=O)Cn1cnc3ccccc31)oc1ccccc12 |  | inconclusive: 3.98 µM [falling, single point]
59 | Cc1cc(C)n(CC(O)CN2C(=O)NC(C)(C)C2=O)n1 (stereo not given) | inconclusive: -0.609% | 
60 | COC(=O)[C@@]1(Cc2ccc(F)cc2)[C@H]2c3cc(C(=O)N(C)C)n(Cc4ccc(C(F)(F)F)nc4)c3C[C@H]2CN1C(=O)c1ccccc1 | inconclusive: 12.3% | 
61 | COc1ccc2c(c1)C(C)=CC(C)(C)N2C(=O)CSc1nnc(-c2ccc(C)cc2)o1 |  | inconclusive: 0.0631 µM [rising, full curve, poor fit]
62 | O=C(CCCCn1c(=O)[nH]c2ccccc2c1=O)N1CCN(c2cccc(C(F)(F)F)c2)CC1 |  | inconclusive: 25.1 µM [falling, single point]
63 | CCc1c(C)sc(NC(=O)c2cccs2)c1C(=O)OC(C)C |  | inconclusive: 6.31 µM [rising, partial curve]
64 | CC[C@H](C(=O)[C@H](C)[C@H](O)[C@H](C)CCc1ccc(C)c(O)c1C(=O)O)[C@H]1O[C@](CC)([C@@H]2CC[C@@](O)(CC)[C@H](C)O2)C[C@H]1C |  | inconclusive: 3.98 µM [falling, partial curve]
65 | CCC(=O)/C=C/C1C(C)=CCCC1(C)C (stereo not given) | inactive | 
66 | CCCCC(OC(=O)c1cc2occc2n1C)C(=O)NCC1CCCO1 (stereo not given) | inconclusive: -19.1% | 
67 | O=C(Nc1ccc(Cl)cc1)Nc1ccccc1C(=O)NCc1ccco1 | inactive | 
68 | COc1ccc(S(=O)(=O)N2CCc3ccccc32)cc1C(=O)OCc1c(C)noc1C | inconclusive: 22.6% | 
69 | CN1[C@@H]2CC[C@H]1CC(OC(=O)[C@@H](CO)c1ccccc1)C2 (stereo not given in full) | inconclusive: -12.9% | 
70 | OC12CCCCC1C(c1ccc3c(c1)OCO3)N(Cc1ccc(F)cc1)CC2 (stereo not given) | inactive | 
71 | COC(=O)c1cc(NC(=O)CN(c2ccc3c(c2)OCO3)S(C)(=O)=O)ccc1Cl |  | inconclusive: 10 µM [rising, partial curve]
72 | Cc1oc(-c2cccs2)nc1CS(=O)CC(=O)NC1CCCCCC1 (stereo not given) |  | inconclusive: 7.94 µM [falling, partial curve]
73 | CCN(c1ccccc1)S(=O)(=O)c1ccc(Oc2ccc(-n3ccnc3)cc2)nc1 | inactive | 
74 | O=C1CSC(=NC(=O)c2ccccc2)N1 | inactive | 
75 | CCCn1c(=O)c2[nH]c(-c3ccc(S(=O)(=O)O)cc3)nc2n(CCC)c1=O | inactive | 
76 | O=C(NCc1ccc2c(c1)OCO2)c1cc(-n2cnnc2)ccc1Cl |  | inconclusive: 20 µM [rising, single point]
77 | Cc1nc2cnc(N(C)C)nc2n(CCc2ccccc2)c1=O |  | active: 7.94 µM
78 | Cc1cc(N=Cc2c(CO)cnc(C)c2O)c(N=Cc2c(CO)cnc(C)c2O)cc1C.[Zn] | inactive: 1.29% [at 7.6 µM] | 
79 | Cc1ccc(CNC(=O)[C@H]2C[C@@H]2[C@H](NP(=O)(c2ccccc2)c2ccccc2)c2ccccc2)c(F)c1F | inactive | 
80 | CCCn1c(SCc2ccccn2)nc2c1c(=O)n(C)c(=O)n2C |  | inconclusive: 12.6 µM [rising, single point]
